Data reported in US20240092867A1 (UNIVERSITY OF CHICAGO, published 2024).

What was measured:
Experiment in all cases: ELISA, GF coated, laminin 10 nM
[1] = biological target: T1, laminin-421 (human, UniProt Q16363 25-1823; P55268 33-1798; P11047 34-1609)
T1 construct: Full-length recombinant human laminin isoform (BioLamina); chains read from the isoform name
Method: (§1) ELISA tests were performed as previously reported. In brief, ELISA plates (med-binding, Greiner Bio-One) were coated with 50 nM GFs at 37° C. for more than 2 hrs. […] Bound laminin was detected with rabbit anti-human laminin γ1 chain antibody (1:1000 dilution, Assay biotech) or rabbit anti-human laminin α3 chain antibody (1:1000 dilution, Assay biotech). After incubation with biotinylated anti-rabbit antibody for 60 min at room temperature (RT), HRP conjugated streptavidin (Jackson ImmunoResearch) was added. After 60 min of incubation at RT, 50 μL TMB substrate (Sigma-Aldrich) was added. The reactions were stopped by adding 25 μL of 2 N H₂SO₄. Subsequently, the absorbance at 450 nm was measured with a reference of 570 nm.

[2] = biological target: T2, laminin-521 (human, UniProt O15230 36-3695; P55268 33-1798; P11047 34-1609)
T2 construct: Full-length recombinant human laminin isoform (BioLamina); chains read from the isoform name
Method: as §1

[3] = biological target: T3, laminin-211 (human, UniProt P24043 23-3122; P07942 22-1786; P11047 34-1609)
T3 construct: Full-length recombinant human laminin isoform (BioLamina); chains read from the isoform name
Method: as §1

[4] = biological target: T4, laminin-111 (human, UniProt P25391 18-3075; P07942 22-1786; P11047 34-1609)
T4 construct: Full-length recombinant human laminin isoform (BioLamina); Chain composition is read from the isoform name
Method: as §1

[5] = biological target: T5, laminin-511 (human, UniProt O15230 36-3695; P07942 22-1786; P11047 34-1609)
T5 construct: Full-length recombinant human laminin isoform (BioLamina); chains read from the isoform name
Method: as §1

[6] = biological target: T6, laminin-411 (human, UniProt Q16363 25-1823; P07942 22-1786; P11047 34-1609)
T6 construct: Full-length recombinant human laminin isoform (BioLamina); chains read from the isoform name
Method: as §1

Measured: binding result

B1: CXCL-12γ (ligand)
chain: not shown
notes: mature
binds: all assays above
